# Assay results taken from the supplement of paper PMC10369915.
# The list shows a part of the results. No stated cut-off is given here; in the data, active = 3.2 or more and inactive = the rest. Most of these values are background signal.
# Target: SHP2 C-SH2 domain E139D
# Assay: enrichment score (SH2-bound / input frequency) (ratio); bacterial display of known human phosphotyrosine sites (pTyr-Var adds point mutants) read by sequencing; higher = stronger binding; tyrosines were phosphorylated by kinases first
# Conditions: peptide library: pTyr-Var
# 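Further: displayed peptides selected on beads carrying the immobilized SH2 domain, with library peptides lacking any tyrosine serving as negative controls.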
row,Binder,enrichment score
1,AIGCEYSEINI [SIGLEC12_Y588_Y586C],inactive: 1.05
2,HQNGMYRLHQD [SGSH_Y89_G90R],inactive: 0.93
3,VVLVSYVPFSQ [SH2B1_Y624_S627F],inactive: 2.48
4,RQEEEYKRLSE [SFSWAP_Y133],inactive: 0.277
5,SARSAYQEAID [SFN_Y151_M155I],inactive: 0.577
6,KKFPDYIQIAR [SGMS2_Y59_M64R_YF],inactive: 1.39
7,KGIQLYDTPFE [SHB_Y297_YF],inactive: 1.28
8,KGIQLYDTPYE [SHB_Y297],inactive: 1.4
9,LCRFGYANTSE [SI_Y1233_YF],inactive: 0.89
10,NSNSDYVDVLP [SH2D1B_Y127],inactive: 0.512
11,AIGYEYSEINI [SIGLEC12_Y588],inactive: 0.901
12,TMETKYDNISR [SETDB2_Y477_V473M],inactive: 0.666
13,RPSGRYPVARR [SHANK3_Y1569],inactive: 0.248
14,KSNSDYVDVLP [SH2D1B_Y127_N122K],inactive: 0.648
15,TVETKYDNISR [SETDB2_Y477],inactive: 0.685
16,HQNGMYGLHQD [SGSH_Y89],inactive: 0.907
17,KKYPDYIQIAR [SGMS2_Y59_M64R],inactive: 1.21
18,AKKVFYVNETR [SHH_Y253_I255N],inactive: 0.946
19,HQNGTYGLHQD [SGSH_Y89_M88T],inactive: 0.698

# Target: SHP2 C-SH2 domain wild-type
# Assay: as above
# Conditions: peptide library: pTyr-Var
row,Binder,enrichment score
1,AIGCEYSEINI [SIGLEC12_Y588_Y586C],inactive: 1.02
2,HQNGMYRLHQD [SGSH_Y89_G90R],inactive: 0.916
3,VVLVSYVPFSQ [SH2B1_Y624_S627F],inactive: 3.13
4,RQEEEYKRLSE [SFSWAP_Y133],inactive: 0.821
5,SARSAYQEAID [SFN_Y151_M155I],inactive: 0.502
6,KKFPDYIQIAR [SGMS2_Y59_M64R_YF],inactive: 1.16
7,KGIQLYDTPFE [SHB_Y297_YF],inactive: 1.15
8,KGIQLYDTPYE [SHB_Y297],inactive: 1.26
9,LCRFGYANTSE [SI_Y1233_YF],inactive: 0.834
10,NSNSDYVDVLP [SH2D1B_Y127],inactive: 0.658
11,AIGYEYSEINI [SIGLEC12_Y588],inactive: 1.39
12,TMETKYDNISR [SETDB2_Y477_V473M],inactive: 0.743
13,RPSGRYPVARR [SHANK3_Y1569],inactive: 0.232
14,KSNSDYVDVLP [SH2D1B_Y127_N122K],inactive: 0.585
15,TVETKYDNISR [SETDB2_Y477],inactive: 0.582
16,HQNGMYGLHQD [SGSH_Y89],inactive: 0.77
17,KKYPDYIQIAR [SGMS2_Y59_M64R],inactive: 1.3
18,AKKVFYVNETR [SHH_Y253_I255N],inactive: 1.19
19,HQNGTYGLHQD [SGSH_Y89_M88T],inactive: 0.828

# Target: SHP2 N-SH2 domain L43F
# Assay: as above
# Conditions: peptide library: pTyr-Var
row,Binder,enrichment score
1,AIGCEYSEINI [SIGLEC12_Y588_Y586C],inactive: 0.984
2,HQNGMYRLHQD [SGSH_Y89_G90R],inactive: 0.737
3,VVLVSYVPFSQ [SH2B1_Y624_S627F],inactive: 2.77
4,RQEEEYKRLSE [SFSWAP_Y133],inactive: 0.681
5,SARSAYQEAID [SFN_Y151_M155I],inactive: 0.642
6,KKFPDYIQIAR [SGMS2_Y59_M64R_YF],inactive: 1.25
7,KGIQLYDTPFE [SHB_Y297_YF],inactive: 1.31
8,KGIQLYDTPYE [SHB_Y297],inactive: 1.36
9,LCRFGYANTSE [SI_Y1233_YF],inactive: 0.693
10,NSNSDYVDVLP [SH2D1B_Y127],inactive: 0.568
11,AIGYEYSEINI [SIGLEC12_Y588],active: 3.66
12,TMETKYDNISR [SETDB2_Y477_V473M],inactive: 0.652
13,RPSGRYPVARR [SHANK3_Y1569],inactive: 0.284
14,KSNSDYVDVLP [SH2D1B_Y127_N122K],inactive: 0.777
15,TVETKYDNISR [SETDB2_Y477],inactive: 0.721
16,HQNGMYGLHQD [SGSH_Y89],inactive: 0.89
17,KKYPDYIQIAR [SGMS2_Y59_M64R],inactive: 1.21
18,AKKVFYVNETR [SHH_Y253_I255N],inactive: 1.21
19,HQNGTYGLHQD [SGSH_Y89_M88T],inactive: 0.604

# Target: SHP2 N-SH2 domain T42A
# Assay: as above
# Conditions: peptide library: pTyr-Var
row,Binder,enrichment score
1,AIGCEYSEINI [SIGLEC12_Y588_Y586C],inactive: 1.23
2,HQNGMYRLHQD [SGSH_Y89_G90R],inactive: 0.733
3,VVLVSYVPFSQ [SH2B1_Y624_S627F],inactive: 2.57
4,RQEEEYKRLSE [SFSWAP_Y133],inactive: 0.302
5,SARSAYQEAID [SFN_Y151_M155I],inactive: 0.575
6,KKFPDYIQIAR [SGMS2_Y59_M64R_YF],inactive: 1.11
7,KGIQLYDTPFE [SHB_Y297_YF],inactive: 1.17
8,KGIQLYDTPYE [SHB_Y297],inactive: 1.34
9,LCRFGYANTSE [SI_Y1233_YF],inactive: 0.66
10,NSNSDYVDVLP [SH2D1B_Y127],inactive: 0.51
11,AIGYEYSEINI [SIGLEC12_Y588],active: 13.5
12,TMETKYDNISR [SETDB2_Y477_V473M],inactive: 0.644
13,RPSGRYPVARR [SHANK3_Y1569],inactive: 0.333
14,KSNSDYVDVLP [SH2D1B_Y127_N122K],inactive: 0.578
15,TVETKYDNISR [SETDB2_Y477],inactive: 0.817
16,HQNGMYGLHQD [SGSH_Y89],inactive: 0.688
17,KKYPDYIQIAR [SGMS2_Y59_M64R],inactive: 1.04
18,AKKVFYVNETR [SHH_Y253_I255N],inactive: 0.991
19,HQNGTYGLHQD [SGSH_Y89_M88T],inactive: 0.545

# Target: SHP2 N-SH2 domain T52S
# Assay: as above
# Conditions: peptide library: pTyr-Var
row,Binder,enrichment score
1,AIGCEYSEINI [SIGLEC12_Y588_Y586C],inactive: 1.02
2,HQNGMYRLHQD [SGSH_Y89_G90R],inactive: 0.854
3,VVLVSYVPFSQ [SH2B1_Y624_S627F],inactive: 2.56
4,RQEEEYKRLSE [SFSWAP_Y133],inactive: 0.828
5,SARSAYQEAID [SFN_Y151_M155I],inactive: 0.837
6,KKFPDYIQIAR [SGMS2_Y59_M64R_YF],inactive: 1.22
7,KGIQLYDTPFE [SHB_Y297_YF],inactive: 1.1
8,KGIQLYDTPYE [SHB_Y297],inactive: 1.59
9,LCRFGYANTSE [SI_Y1233_YF],inactive: 0.83
10,NSNSDYVDVLP [SH2D1B_Y127],inactive: 0.83
11,AIGYEYSEINI [SIGLEC12_Y588],active: 4.08
12,TMETKYDNISR [SETDB2_Y477_V473M],inactive: 0.689
13,RPSGRYPVARR [SHANK3_Y1569],inactive: 0.15
14,KSNSDYVDVLP [SH2D1B_Y127_N122K],inactive: 0.74
15,TVETKYDNISR [SETDB2_Y477],inactive: 0.804
16,HQNGMYGLHQD [SGSH_Y89],inactive: 0.643
17,KKYPDYIQIAR [SGMS2_Y59_M64R],inactive: 1.17
18,AKKVFYVNETR [SHH_Y253_I255N],inactive: 0.805
19,HQNGTYGLHQD [SGSH_Y89_M88T],inactive: 0.57

# Target: SHP2 N-SH2 domain wild-type
# Assay: as above
# Conditions: peptide library: pTyr-Var
row,Binder,enrichment score
1,AIGCEYSEINI [SIGLEC12_Y588_Y586C],inactive: 1.65
2,HQNGMYRLHQD [SGSH_Y89_G90R],inactive: 0.84
3,VVLVSYVPFSQ [SH2B1_Y624_S627F],inactive: 2.82
4,RQEEEYKRLSE [SFSWAP_Y133],inactive: 0.662
5,SARSAYQEAID [SFN_Y151_M155I],inactive: 0.894
6,KKFPDYIQIAR [SGMS2_Y59_M64R_YF],inactive: 1.23
7,KGIQLYDTPFE [SHB_Y297_YF],inactive: 1.26
8,KGIQLYDTPYE [SHB_Y297],inactive: 1.27
9,LCRFGYANTSE [SI_Y1233_YF],inactive: 0.781
10,NSNSDYVDVLP [SH2D1B_Y127],inactive: 0.892
11,AIGYEYSEINI [SIGLEC12_Y588],inactive: 1.36
12,TMETKYDNISR [SETDB2_Y477_V473M],inactive: 0.535
13,RPSGRYPVARR [SHANK3_Y1569],inactive: 0.294
14,KSNSDYVDVLP [SH2D1B_Y127_N122K],inactive: 0.699
15,TVETKYDNISR [SETDB2_Y477],inactive: 0.784
16,HQNGMYGLHQD [SGSH_Y89],inactive: 0.665
17,KKYPDYIQIAR [SGMS2_Y59_M64R],inactive: 1.39
18,AKKVFYVNETR [SHH_Y253_I255N],inactive: 1.2
19,HQNGTYGLHQD [SGSH_Y89_M88T],inactive: 0.758
